Data published in PubChem BioAssay AID1346428 (National Center for Advancing Translational Sciences (NCATS), 2018).
The whole screen tested about 48,000 compounds, of which about 1,200 (2.5%) were called active. Not shown: some 2% with an inconclusive outcome.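 How the source made its calls: active means activation of at least 60% and not above a set upper limit (about 1 call in 100 departs from these limits); inconclusive means activation of 40% to 60%, or above that upper limit; inactive means activation under 40%.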 The list shows a part of the results.

target: Probable G-protein coupled receptor 32 (Homo sapiens) (UniProt O75388); assay: qHTS for Agonists of Human Resolvin D1 Receptor DRV1; details: CHO-K1 GPR32 beta-arrestin PathHunter luminescence, 90 min; at 76.9 µM; hits give high values; zero percent set by DMSO-only wells; further: 0% is about no effect
Procedure, shortened: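 Readings come from a cell-based beta-arrestin complementation format: CHO-K1 GPR32 stable cells (2,500/well) treated 90 min with compounds, then beta-Gal substrate added for 1 h before chemiluminescence imaging.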

UniProt O75388, sequence (O75388 whole entry, looked up): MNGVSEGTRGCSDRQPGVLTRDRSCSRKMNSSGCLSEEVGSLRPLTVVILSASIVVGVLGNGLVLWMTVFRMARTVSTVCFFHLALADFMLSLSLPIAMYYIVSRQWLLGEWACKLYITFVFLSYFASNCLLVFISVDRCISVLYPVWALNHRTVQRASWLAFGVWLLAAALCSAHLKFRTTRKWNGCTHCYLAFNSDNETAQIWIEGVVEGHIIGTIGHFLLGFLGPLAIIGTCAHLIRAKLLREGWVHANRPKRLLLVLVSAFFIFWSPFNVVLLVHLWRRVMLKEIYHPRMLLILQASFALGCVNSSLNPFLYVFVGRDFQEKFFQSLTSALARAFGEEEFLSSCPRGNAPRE

activation, inactive:
Cc1nc(-c2ccc(S(=O)(=O)N3CCN(c4cc(Cl)ccc4C)CC3)cc2)co1 -14.7%, O=C(NCCc1ccc(Cl)cc1)C1COc2ccccc2C1 (stereo not given) -30%, CCOC(=O)c1ccc(NC(=O)c2cn(-c3ccccc3)nc2-c2ccc(OC)c(OC)c2)cc1 -1.26%, O=C(Nc1cccc(-c2nc3cccnc3s2)c1)c1cccc(Br)c1 -8.11%, CCNC(=O)CC1C(=O)N(c2ccc(C)cc2)C(=O)N1CCC(C)C (stereo not given) -3.46%, O=C(Cn1c(=O)oc2cc(S(=O)(=O)N3CCCC3)ccc21)Nc1ccc(F)cc1F -14.3%, COc1ccc2c(Sc3ccc(Cl)cc3)c(C(=O)N3CCC(C)CC3)[nH]c2c1 -19.2%, N#Cc1ccccc1NC(=O)C(=O)NCCc1csc(-c2ccc(F)cc2)n1 28.4%, Cc1ccc(S(=O)(=O)c2nc(-c3cccs3)oc2SC(C)C)cc1 -26.6%, CCc1cccc(NC(=O)CSc2ncc3c(n2)-c2ccccc2N(CC)S3(=O)=O)c1 42.5%, COc1ccc(NC(=O)C(C)n2nc(-c3cc(C)ccc3C)c3c(c2=O)CCCC3)cc1 (stereo not given) 7.73%, COCCNC(=O)CSc1nc2cc3c(cc2c(=O)n1Cc1ccc(C(=O)NCCc2ccc(OC)c(OC)c2)cc1)OCO3 -7.78%, CCOc1ccc(NC(=O)CSc2nnc(-c3ccncc3)n2-c2ccccc2)cc1 38.3%, COCCCNC(=O)CCC(=O)NNc1nc2ccccc2c2nc(-c3ccccc3)nn12 5.68%, O=C(NCCc1ccccc1)C(=O)NCC(c1ccco1)S(=O)(=O)c1ccccc1 (stereo not given) -6.32%, Nc1c[n+](N2CCOCC2)no1 -5.77%, COc1ccc(CNC(=O)c2ccc(CSc3nc4ccncc4n3Cc3ccccc3F)cc2)cc1 -0.926%, CCOc1ccc(Nc2ncnc3c2cnn3-c2ccc(F)cc2)cc1 7.05%, CCOC(=O)C(=O)Nc1nnc2n1CCS2 -6.49%, Cc1nc(N2CCCC2)ncc1C(=O)N1CCN(c2ccc(Cl)cc2)CC1 3.83%, Cc1ccc(C)c(-n2cc(-c3ccccc3)nc2SCC(=O)Nc2ccccc2)c1 -20.5%, Cc1nc2c(C(=O)NCc3ccccc3Cl)cnn2c(C)c1Cc1ccccc1 -0.256%, COc1ccc(NC(=O)Cn2c(=O)n(Cc3ccccc3)c(=O)c3oc4ccccc4c32)cc1Cl -11.1%, COc1cccc(-c2csc(-c3c(N)c(C(=O)c4ccccc4)n4ccccc34)n2)c1 15.8%, O=C(CSc1nc2c([nH]c3ccccc32)c(=O)n1-c1ccc(Cl)cc1)N1CCCCCC1 34.2%, Cc1nc2n(c(=O)c1CCN1CCC(c3noc4cc(F)ccc34)CC1)CCC[C@H]2O 8.41%, Cn1cc(S(=O)(=O)N2CCCCC2)cc1C(=O)N1CCN(c2ccccc2F)CC1 6.18%, CCCCOc1cc(C(=O)OCCN(CC)CC)ccc1N 0.423%, CCOC(=O)c1ccccc1NC(=O)Cn1c(=O)n(CCCC(=O)NCc2ccc3c(c2)OCO3)c(=O)c2ccccc21 -8.21%, COCCCNC(=O)c1cnn(-c2ccc(F)cc2F)c1C1CCNCC1 1.71%, COc1ccc(NC(=O)CC2C(=O)N(c3ccc(F)cc3)C(=O)N2CCc2sccc2C)cc1 (stereo not given) -0.922%, CCOC(=O)c1cc(-c2ccccc2)n(CCC(=O)Nc2cc(C)cc(C)c2)c1C -20.9%, Cc1ccc2scc(N3CCCCC3)c(=O)c2c1 -19.4%, Nc1ccc2nc(-c3ccc(O)cc3)sc2c1 14.8%, O=C(Cn1c(=O)oc2cc(S(=O)(=O)NCc3ccccc3)ccc21)NCc1ccccc1Cl 16.9%, Cc1ccc(N2CCN(C(=O)C3CCN(c4ncnc5c4nc4n5CCCCC4)CC3)CC2)c(C)c1 -3.4%, Cc1ccc2nc(NC(=O)c3nc(SCc4ccccc4C)ncc3Cl)sc2c1 19.4%, COc1cc([C@H]2Oc3cc([C@H]4Oc5cc(O)cc(O)c5C(=O)[C@@H]4O)ccc3O[C@@H]2CO)ccc1O -6.72%, CN(Cc1ccccc1)C(=O)C1CCC(CNS(=O)(=O)c2ccc3c(c2)CCCC(=O)N3)CC1 (stereo not given) 3.99%, N#C/C(=C1/SC[C@@H](c2ccc(Cl)cc2Cl)S1)n1ccnc1 -37.5%, NC(N)=N[C@@H](CCC(=O)O)C(=O)O -1.42%, Cc1ccc2ncc(C(=O)NC(C)c3ccccc3)c(=O)n2c1 (stereo not given) -7.14%, O=C(O)CCc1nnc2cnc3ccccc3n12 3.03%, CCc1nn(CC(=O)NCCCc2ccccc2)c(=O)c2cc3c(OC)cccc3n12 -0.658%, CC(=O)N1CCC2(CC1)OC(=O)C(C)=C2C(=O)NCc1cccc(Cl)c1 -8.18%, COc1cc(NC(=O)NCC2CCN(Cc3ccc(C)cc3)CC2)cc(OC)c1OC -10.7%, Cc1ccc(N2CCN(C(=O)c3c(C)oc4ncnc(N5CCOCC5)c34)CC2)c(C)c1 -11.6%, Cc1ccc(C)c(Nc2cc(C(=O)NCCCN(C)C3CCCCC3)c3ccccc3n2)c1 -8.54%, Cc1ccc(N2C(=O)CS(=O)(=O)C23C(=O)N(C)c2ccccc23)cc1F (stereo not given) -9.02%, O=[N+]([O-])c1cc(-c2nc(-c3ccccn3)no2)ccc1NCc1ccccc1 15.9%, C[N+](C)(C)CC(O)CC(=O)[O-] (stereo not given) 11%, Cc1ccc(CNC(=O)c2cnc3c(-c4ccccc4)c(C)nn3c2C)o1 -15.3%, Cc1ccc(CN2CCCn3nc(C(=O)NCc4cc(C)ccc4C)cc3C2=O)cc1 -4.03%, Cc1ccc(C(=O)Nc2nnc(S(=O)(=O)N3CCN(c4ccc(F)cc4)CC3)s2)cc1 -0.758%, Cc1ccc(S(=O)(=O)CCC(=O)Nc2ccc(Br)cc2C)cc1 5.17%
